Measurements as given in patent US9023789B2, “Amylin analogs and pharmaceutical compositions thereof” (Novo Nordisk A/S, priority 2012, dated 2015).
At least one read-out could not be matched to a standard name with certainty. Numbered stars: 1 amine (or outer) side, 2 acyl side, 3 side chain; on linkers, the order of the positions; unused ones are H or OH. Bridge positions count the residues as written; N and C are the ends. Side chains are listed from the residue outwards. Peptide text beside a SMILES is read from it. * marks the point of attachment. C20 diacid = O=C(O)CCCCCCCCCCCCCCCCCCC(=O)*; γGlu = O=C(O)[C@H](CCC(=O)[*:2])N[*:1]

Assay: ASSAY (III) ThT fibrillation assay for physical stability
Type: physicochemical
In short: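 Formulations with 1 μM ThT, pH adjusted as required, incubated at 37 °C with 960 rpm orbital shaking; fluorescence (ex 444/em 485 nm) read every 20 min. Fibrillation reported as mean ThT fluorescence ± SD of 4–8 replicates at time points; polypeptide concentration measured by reverse-phase HPLC before and after, post-centrifugation.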

Q: For CC[C@H](C)[C@H](NC(=O)[C@H](C)NC(=O)CNC(=O)[C@H](Cc1ccccc1)NC(=O)[C@H](CC(N)=O)NC(=O)[C@@H]1CCCN1C(=O)[C@H](CO)NC(=O)[C@H](CO)NC(=O)[C@H](Cc1c[nH]cn1)NC(=O)[C@H](CCCNC(=N)N)NC(=O)[C@H](CC(C)C)NC(=O)[C@H](Cc1ccccc1)NC(=O)[C@H](Cc1c[nH]cn1)NC(=O)[C@H](C)NC(=O)[C@H](CC(C)C)NC(=O)[C@H](CCCNC(=N)N)NC(=O)[C@H](CCC(N)=O)NC(=O)[C@@H](NC(=O)[C@H](C)NC(=O)[C@@H]1CSSC[C@H](NC(=O)[C@@H](N)CCCCNC(=O)CC[C@H](NC(=O)CCCCCCCCCCCCCCCCCCC(=O)O)C(=O)O)C(=O)N[C@@H](CC(N)=O)C(=O)N[C@@H]([C@@H](C)O)C(=O)N[C@@H](C)C(=O)N[C@@H]([C@@H](C)O)C(=O)N1)[C@@H](C)O)C(=O)N1CCC[C@H]1C(=O)N[C@@H](CO)C(=O)N[C@@H](CO)C(=O)N[C@H](C(=O)N1CCC[C@H]1C(=O)N[C@H](C(=O)NCC(=O)N1CCC[C@H]1C(=O)N[C@@H](CC(N)=O)C(=O)N[C@H](C(=O)N[C@@H](Cc1ccc(O)cc1)C(N)=O)[C@@H](C)O)C(C)C)[C@@H](C)O [Example 116] (H-K([γGlu-C20 diacid])CNTATCATQRLAHFLRHSSPNFGAIPSSTPVGPNTY-NH2; disulfide 2-7), which “ThT pH 4.0 recovery (%)” value is on record?
A: The value was 88%.

Q: For CC[C@H](C)[C@H](NC(=O)[C@H](C)NC(=O)CNC(=O)[C@H](Cc1ccccc1)NC(=O)[C@H](CC(N)=O)NC(=O)[C@@H]1CCCN1C(=O)[C@H](CO)NC(=O)[C@H](CO)NC(=O)[C@H](Cc1c[nH]cn1)NC(=O)[C@H](CCCNC(=N)N)NC(=O)[C@H](CC(C)C)NC(=O)[C@H](Cc1ccccc1)NC(=O)[C@H](CCC(=O)O)NC(=O)[C@H](C)NC(=O)[C@H](CC(C)C)NC(=O)[C@H](CCCNC(=N)N)NC(=O)[C@H](CCC(N)=O)NC(=O)[C@@H](NC(=O)[C@H](C)NC(=O)[C@@H]1CSSC[C@H](NC(=O)[C@@H](N)CCCCNC(=O)CC[C@H](NC(=O)CCCCCCCCCCCCCCCCCCC(=O)O)C(=O)O)C(=O)N[C@@H](CC(N)=O)C(=O)N[C@@H]([C@@H](C)O)C(=O)N[C@@H](C)C(=O)N[C@@H]([C@@H](C)O)C(=O)N1)[C@@H](C)O)C(=O)N1CCC[C@H]1C(=O)N[C@@H](CO)C(=O)N[C@@H](CO)C(=O)N[C@H](C(=O)N[C@@H](CC(N)=O)C(=O)N[C@H](C(=O)NCC(=O)N1CCC[C@H]1C(=O)N[C@@H](CCCNC(=N)N)C(=O)N[C@H](C(=O)N[C@@H](Cc1ccc(O)cc1)C(N)=O)[C@@H](C)O)C(C)C)[C@@H](C)O [Example 117] (H-K([γGlu-C20 diacid])CNTATCATQRLAEFLRHSSPNFGAIPSSTNVGPRTY-NH2; disulfide 2-7; N-terminus assumed), which “ThT pH 4.0 recovery (%)” value is on record?
A: The value was 78%.

Q: Which “ThT pH 4.0 recovery (%)” value does the source give for CC[C@H](C)[C@H](NC(=O)[C@H](C)NC(=O)CNC(=O)[C@H](Cc1ccccc1)NC(=O)[C@H](CC(N)=O)NC(=O)[C@@H]1CCCN1C(=O)[C@H](CO)NC(=O)[C@H](CO)NC(=O)[C@H](Cc1c[nH]cn1)NC(=O)[C@H](CCCNC(=N)N)NC(=O)[C@H](CC(C)C)NC(=O)[C@H](Cc1ccccc1)NC(=O)[C@H](CCC(=O)O)NC(=O)[C@H](C)NC(=O)[C@H](CC(C)C)NC(=O)[C@H](CCCNC(=N)N)NC(=O)[C@H](CCC(N)=O)NC(=O)[C@@H](NC(=O)[C@H](C)NC(=O)[C@@H]1CSSC[C@H](NC(=O)[C@@H](N)CCCCNC(=O)CC[C@H](NC(=O)CCCCCCCCCCCCCCCCCCC(=O)O)C(=O)O)C(=O)N[C@@H](CC(N)=O)C(=O)N[C@@H]([C@@H](C)O)C(=O)N[C@@H](C)C(=O)N[C@@H]([C@@H](C)O)C(=O)N1)[C@@H](C)O)C(=O)N1CCC[C@H]1C(=O)N[C@@H](CO)C(=O)N[C@@H](CO)C(=O)N[C@H](C(=O)N[C@@H](CC(N)=O)C(=O)N[C@H](C(=O)NCC(=O)N1CCC[C@H]1C(=O)N[C@@H](Cc1c[nH]cn1)C(=O)N[C@H](C(=O)N[C@@H](Cc1ccc(O)cc1)C(N)=O)[C@@H](C)O)C(C)C)[C@@H](C)O [Example 118] (H-K([γGlu-C20 diacid])CNTATCATQRLAEFLRHSSPNFGAIPSSTNVGPHTY-NH2; disulfide 2-7) here?
A: Its value is 100%.

Q: Which “ThT pH 4.0 recovery (%)” value does the source give for CC[C@H](C)[C@H](NC(=O)[C@H](C)NC(=O)CNC(=O)[C@H](Cc1ccccc1)NC(=O)[C@H](CC(N)=O)NC(=O)[C@@H]1CCCN1C(=O)[C@H](CO)NC(=O)[C@H](CO)NC(=O)[C@H](Cc1c[nH]cn1)NC(=O)[C@H](CCCNC(=N)N)NC(=O)[C@H](CC(C)C)NC(=O)[C@H](Cc1ccccc1)NC(=O)[C@H](CC(N)=O)NC(=O)[C@H](C)NC(=O)[C@H](CC(C)C)NC(=O)[C@H](CCCNC(=N)N)NC(=O)[C@H](CCC(N)=O)NC(=O)[C@@H](NC(=O)[C@H](C)NC(=O)[C@@H]1CSSC[C@H](NC(=O)[C@@H](N)CCCCNC(=O)CC[C@H](NC(=O)CC[C@H](NC(=O)CCCCCCCCCCCCCCCCCCC(=O)O)C(=O)O)C(=O)O)C(=O)N[C@@H](CC(N)=O)C(=O)N[C@@H]([C@@H](C)O)C(=O)N[C@@H](C)C(=O)N[C@@H]([C@@H](C)O)C(=O)N1)[C@@H](C)O)C(=O)N1CCC[C@H]1C(=O)N[C@@H](CO)C(=O)N[C@@H](CO)C(=O)N[C@H](C(=O)N1CCC[C@H]1C(=O)N[C@H](C(=O)NCC(=O)N1CCC[C@H]1C(=O)N[C@@H](CCCNC(=N)N)C(=O)N[C@H](C(=O)N[C@@H](Cc1ccc(O)cc1)C(N)=O)[C@@H](C)O)C(C)C)[C@@H](C)O [Example 119] (H-K([γGlu-γGlu-C20 diacid])CNTATCATQRLANFLRHSSPNFGAIPSSTPVGPRTY-NH2; disulfide 2-7) here?
A: Its value is 93%.

Q: For CC[C@H](C)[C@H](NC(=O)[C@H](C)NC(=O)CNC(=O)[C@H](Cc1ccccc1)NC(=O)[C@H](CC(N)=O)NC(=O)[C@@H]1CCCN1C(=O)[C@H](CO)NC(=O)[C@H](CO)NC(=O)[C@H](Cc1c[nH]cn1)NC(=O)[C@H](CCCNC(=N)N)NC(=O)[C@H](CC(C)C)NC(=O)[C@H](Cc1ccccc1)NC(=O)[C@H](CO)NC(=O)[C@H](C)NC(=O)[C@H](CC(C)C)NC(=O)[C@H](CCCNC(=N)N)NC(=O)[C@H](CCC(N)=O)NC(=O)[C@@H](NC(=O)[C@H](C)NC(=O)[C@@H]1CSSC[C@H](NC(=O)[C@@H](N)CCCCNC(=O)CC[C@H](NC(=O)CC[C@H](NC(=O)CCCCCCCCCCCCCCCCCCC(=O)O)C(=O)O)C(=O)O)C(=O)N[C@@H](CC(N)=O)C(=O)N[C@@H]([C@@H](C)O)C(=O)N[C@@H](C)C(=O)N[C@@H]([C@@H](C)O)C(=O)N1)[C@@H](C)O)C(=O)N1CCC[C@H]1C(=O)N[C@@H](CO)C(=O)N[C@@H](CO)C(=O)N[C@H](C(=O)N[C@@H](CC(N)=O)C(=O)N[C@H](C(=O)NCC(=O)N1CCC[C@H]1C(=O)N[C@@H](CCC(=O)O)C(=O)N[C@H](C(=O)N[C@@H](Cc1ccc(O)cc1)C(N)=O)[C@@H](C)O)C(C)C)[C@@H](C)O [Example 120] (H-K([γGlu-γGlu-C20 diacid])CNTATCATQRLASFLRHSSPNFGAIPSSTNVGPETY-NH2; disulfide 2-7 (inferred); N-terminus assumed), which “ThT pH 4.0 recovery (%)” value is on record?
A: The value was 1%.

Q: For CC[C@H](C)[C@H](NC(=O)[C@H](C)NC(=O)CNC(=O)[C@H](Cc1ccccc1)NC(=O)[C@H](CC(N)=O)NC(=O)[C@@H]1CCCN1C(=O)[C@H](CO)NC(=O)[C@H](CO)NC(=O)[C@H](Cc1c[nH]cn1)NC(=O)[C@H](CCCNC(=N)N)NC(=O)[C@H](CC(C)C)NC(=O)[C@H](Cc1ccccc1)NC(=O)[C@H](CCC(=O)O)NC(=O)[C@H](C)NC(=O)[C@H](CC(C)C)NC(=O)[C@H](CCCNC(=N)N)NC(=O)[C@H](CCC(N)=O)NC(=O)[C@@H](NC(=O)[C@H](C)NC(=O)[C@@H]1CSSC[C@H](NC(=O)[C@@H](N)CCCCNC(=O)CC[C@H](NC(=O)CC[C@H](NC(=O)CCCCCCCCCCCCCCCCCCC(=O)O)C(=O)O)C(=O)O)C(=O)N[C@@H](CC(N)=O)C(=O)N[C@@H]([C@@H](C)O)C(=O)N[C@@H](C)C(=O)N[C@@H]([C@@H](C)O)C(=O)N1)[C@@H](C)O)C(=O)N[C@@H](CC(C)C)C(=O)N[C@@H](CO)C(=O)N[C@@H](CO)C(=O)N[C@H](C(=O)N1CCC[C@H]1C(=O)N[C@H](C(=O)NCC(=O)N1CCC[C@H]1C(=O)N[C@@H](CCC(=O)O)C(=O)N[C@H](C(=O)N[C@@H](Cc1ccc(O)cc1)C(N)=O)[C@@H](C)O)C(C)C)[C@@H](C)O [Example 121] (H-K([γGlu-γGlu-C20 diacid])CNTATCATQRLAEFLRHSSPNFGAILSSTPVGPETY-NH2; disulfide 2-7; N-terminus assumed), which “ThT pH 4.0 recovery (%)” value is on record?
A: Its value is 0%.

Q: With CC[C@H](C)[C@H](NC(=O)[C@H](C)NC(=O)CNC(=O)[C@H](Cc1ccccc1)NC(=O)[C@H](CC(N)=O)NC(=O)[C@@H]1CCCN1C(=O)[C@H](CO)NC(=O)[C@H](CO)NC(=O)[C@H](Cc1c[nH]cn1)NC(=O)[C@H](CCCNC(=N)N)NC(=O)[C@H](CC(C)C)NC(=O)[C@H](Cc1ccccc1)NC(=O)[C@H](CC(=O)O)NC(=O)[C@H](C)NC(=O)[C@H](CC(C)C)NC(=O)[C@H](CCCNC(=N)N)NC(=O)[C@H](CCC(N)=O)NC(=O)[C@@H](NC(=O)[C@H](C)NC(=O)[C@@H]1CSSC[C@H](NC(=O)[C@@H](N)CCCCNC(=O)CC[C@H](NC(=O)CC[C@H](NC(=O)CCCCCCCCCCCCCCCCCCC(=O)O)C(=O)O)C(=O)O)C(=O)N[C@@H](CC(N)=O)C(=O)N[C@@H]([C@@H](C)O)C(=O)N[C@@H](C)C(=O)N[C@@H]([C@@H](C)O)C(=O)N1)[C@@H](C)O)C(=O)N1CCC[C@H]1C(=O)N[C@@H](CO)C(=O)N[C@@H](CO)C(=O)N[C@H](C(=O)N[C@@H](CC(N)=O)C(=O)N[C@H](C(=O)NCC(=O)N1CCC[C@H]1C(=O)N[C@@H](CCC(=O)O)C(=O)N[C@H](C(=O)N[C@@H](Cc1ccc(O)cc1)C(N)=O)[C@@H](C)O)C(C)C)[C@@H](C)O [Example 122] (H-K([γGlu-γGlu-C20 diacid])CNTATCATQRLADFLRHSSPNFGAIPSSTNVGPETY-NH2; disulfide 2-7 (inferred); N-terminus assumed) as the compound, how does the “ThT pH 4.0 recovery (%)” value read?
A: The value was 100%.
